Variants at the floor of the assay are shown more often than the library holds them.
B1: glmS ribozyme (parent)
chain: AUAAAAGCGCCAGAACUACAGAAAUGUAGUUGACGAGGAGGAGGUUUAUCGAAUUUUCGGCGGAUGCCUCCAAA

Experiments:
Details in all cases: with glucosamine-6-phosphate
glucosamine-6-phosphate [1] = variants of: B1; assay: self-cleavage kobs at 40 uM GlcN6P; higher = faster cleavage; RNA array
How it was run: (§1)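 Weighted Michaelis–Menten fits across concentrations supplied kcat and KM, based on kobs from one- or two-exponential decay fits to normalised per-tile medians. The data came from barcoded ribozyme variants transcribed in situ by E. coli RNA polymerase on sequenced MiSeq chips and tracked at 37 °C by a hybridised Cy3 probe. Glucosamine-6-phosphate (40 μM to 10 mM) in HEPES/KCl/Mg(OAc)2 buffer was flowed in.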

glucosamine-6-phosphate [2] = variants of: B1; assay: self-cleavage kobs at 640 uM GlcN6P; higher = faster cleavage; RNA array
How it was run: as §1

glucosamine-6-phosphate [3] = variants of: B1; assay: self-cleavage kobs at 160 uM GlcN6P; higher = faster cleavage; RNA array
How it was run: as §1

glucosamine-6-phosphate [4] = variants of: B1; assay: self-cleavage kobs at 10000 uM GlcN6P; higher = faster cleavage; RNA array
How it was run: as §1

glucosamine-6-phosphate [5] = variants of: B1; assay: self-cleavage kobs at 2500 uM GlcN6P; higher = faster cleavage; RNA array
How it was run: as §1

Variant	self-cleavage kobs at 40 uM GlcN6P (glucosamine-6-phosphate [1]) [s⁻¹]	self-cleavage kobs at 640 uM GlcN6P (glucosamine-6-phosphate [2]) [s⁻¹]	self-cleavage kobs at 160 uM GlcN6P (glucosamine-6-phosphate [3]) [s⁻¹]	self-cleavage kobs at 10000 uM GlcN6P (glucosamine-6-phosphate [4]) [s⁻¹]	self-cleavage kobs at 2500 uM GlcN6P (glucosamine-6-phosphate [5]) [s⁻¹]
U57G G62A	< 1e-05				
C58A G63U U69C	< 1e-05				
C58A U65A	< 1e-05				
G59A C68A	< 1e-05				
G59A G60A	< 1e-05	< 1e-05	< 1e-05	< 1e-05	
G59U G62U	< 1e-05			< 1e-05	< 1e-05
G60C U65A	< 1e-05			< 1e-05	
G60C U69A	< 1e-05		< 1e-05	< 1e-05	< 1e-05
G60U	< 1e-05	< 1e-05	< 1e-05		
G60U C61A	< 1e-05		< 1e-05	< 1e-05	< 1e-05
G60U G62C	< 1e-05				
C61A U65C	< 1e-05	< 1e-05	< 1e-05		< 1e-05
C61G C70U C71U	< 1e-05			< 1e-05	
C61U G63U	< 1e-05	< 1e-05	< 1e-05		
G62U C70A	< 1e-05				
G62U C71U	< 1e-05		< 1e-05	< 1e-05	
G63C A64U	< 1e-05	< 1e-05			< 1e-05
G63C C68U	< 1e-05			< 1e-05	
A64U G66C	< 1e-05				

Variant	self-cleavage kobs at 40 uM GlcN6P (glucosamine-6-phosphate [1]) [s⁻¹]	self-cleavage kobs at 640 uM GlcN6P (glucosamine-6-phosphate [2]) [s⁻¹]	self-cleavage kobs at 160 uM GlcN6P (glucosamine-6-phosphate [3]) [s⁻¹]	self-cleavage kobs at 10000 uM GlcN6P (glucosamine-6-phosphate [4]) [s⁻¹]	self-cleavage kobs at 2500 uM GlcN6P (glucosamine-6-phosphate [5]) [s⁻¹]
U2C G32U G44A U47G		< 1e-05			< 1e-05
U2C G43U C50U G51A		< 1e-05			< 1e-05
A6C A12C G29U		< 1e-05			
A6C A15C G32C A33C C61A C68U		< 1e-05	< 1e-05		
A6C A53U C58U		< 1e-05			< 1e-05
A6C C16A G38A A48C		< 1e-05			< 1e-05
A6C C50U A52G		< 1e-05			
A6C G41C U46C		< 1e-05			
A6C G44A G66C		< 1e-05			
A6C U46C U47C G59A		< 1e-05			
A6G A14C A33C		< 1e-05			< 1e-05
A6G A14C G32U A33U G38A C67G		< 1e-05			
A6G A14U A33U G43A C50G		< 1e-05			
A6G A36G U56A		< 1e-05	< 1e-05		< 1e-05
A6G A39U C68G		< 1e-05			< 1e-05
A6G A48G C58U		< 1e-05			
A6G C10G A15G C16U G41U		< 1e-05			< 1e-05
A6G C10U G13U A48G U54A U57C U69C		< 1e-05			
A6G C11U U56G C61G		< 1e-05			< 1e-05

Variant	self-cleavage kobs at 40 uM GlcN6P (glucosamine-6-phosphate [1]) [s⁻¹]	self-cleavage kobs at 640 uM GlcN6P (glucosamine-6-phosphate [2]) [s⁻¹]	self-cleavage kobs at 160 uM GlcN6P (glucosamine-6-phosphate [3]) [s⁻¹]	self-cleavage kobs at 10000 uM GlcN6P (glucosamine-6-phosphate [4]) [s⁻¹]	self-cleavage kobs at 2500 uM GlcN6P (glucosamine-6-phosphate [5]) [s⁻¹]
A6G C16U U30C A42C C68U		< 1e-05			
A6G G9U A12U A15C G35C G38C G63A		< 1e-05			< 1e-05
A6G G9U C58A		< 1e-05			
A6G G32A G44C		< 1e-05	< 1e-05		< 1e-05
A6G G35A U56G G66A		< 1e-05	< 1e-05		< 1e-05
A6G G63C		< 1e-05	< 1e-05	< 1e-05	< 1e-05
A6U A33G U46A		< 1e-05			
A6U A33U U45A C71G		< 1e-05			
A6U C8G A48U C70G		< 1e-05			
A6U C10U G32C		< 1e-05			
A6U G7A C16A G43U		< 1e-05	< 1e-05		
A6U G9C A12C A14U		< 1e-05			< 1e-05
A6U G13U U46G U47G C61A		< 1e-05			
A6U G37C G40A		< 1e-05			< 1e-05
A6U G38A G66A		< 1e-05			< 1e-05
A6U G62U A64G		< 1e-05			< 1e-05
G7A A14G A33G A53G		< 1e-05	< 1e-05		< 1e-05
G7A A48U A53U U65A		< 1e-05	< 1e-05		
G7A C8U A15U		< 1e-05			< 1e-05
